From the supplement of paper PMC12578646, “Prodrug florfenicol amine is activated by intrinsic resistance to target Mycobacterium abscessus” (Nature Microbiology, 2025)
± gives the standard deviation of the averaged measurements. M. abscessus ATCC 19977 and its deletion, point and complemented mutants after 5 days of drug at 37 °C plus 24 h of resazurin. Growth in % of untreated wells at the dose given (lower = more inhibition); checkerboards give % inhibition (higher = more inhibition); IC50 from the fitted curve (lower = more potent). No active / inactive call. IC50 values come from the same 384-well curves. Growth is not capped and can exceed 100%. The direction of the checkerboard scale is read from the raw signals. Capreomycin is a mixture.

Test system: Mycobacterium abscessus ATCC 19977
Experiment: growth inhibition; higher = more inhibition
Procedure: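 384-well checkerboard, three replicates; 5 days at 37 °C, then 24 h with resazurin; fluorescence scaled to growth and killed controls.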

CS(=O)(=O)c1ccc([C@@H](O)[C@H](N)CF)cc1 [florfenicol amine] + CC(=O)NC[C@H]1CN(c2ccc(N3CCOCC3)c(F)c2)C(=O)O1 [Linezolid]
growth inhibition [%]
Settings | partner concentration 0.125 µg/mL | partner concentration 0.25 µg/mL | partner concentration 0.5 µg/mL | partner concentration 1 µg/mL | partner concentration 2 µg/mL | partner concentration 4 µg/mL | partner concentration 8 µg/mL | partner concentration 16 µg/mL | partner concentration 32 µg/mL | partner concentration 64 µg/mL
0.241504 µg/mL | 12.8 ± 4.3 | 7.44 ± 6.5 | -0.26 ± 4 | -7.24 ± 5.7 | -12.9 ± 3.9 | 79.4 ± 3.5 | 102 ± 0.26 | 103.2 ± 0.33 | 104 ± 0.26 | 103.9 ± 0.61
0.483008 µg/mL | 9.78 ± 4.3 | 8.02 ± 3 | 0.813 ± 2.6 | -11.6 ± 1.6 | 14.3 ± 2.4 | 97.4 ± 2.8 | 103.1 ± 0.26 | 103.8 ± 0.13 | 104.45 ± 0.041 | 104.3 ± 0.28
0.966016 µg/mL | -18.5 ± 2 | -19.4 ± 4.2 | -23.9 ± 3.8 | -21.5 ± 6.2 | 64 ± 3 | 99.7 ± 1.6 | 101.3 ± 0.51 | 102.4 ± 0.6 | 103.6 ± 0.29 | 103.9 ± 0.42
1.93203 µg/mL | -17.2 ± 3.6 | -16.8 ± 2.4 | -10.6 ± 3 | 11.7 ± 1.5 | 93.6 ± 1.2 | 102.5 ± 0.36 | 102.6 ± 0.17 | 103.5 ± 0.24 | 103 ± 1.5 | 104.5 ± 0.22
3.86406 µg/mL | -8.64 ± 1.6 | -5.94 ± 3 | -0.659 ± 2 | 50.6 ± 2.2 | 97.51 ± 0.53 | 103.6 ± 0.2 | 103.6 ± 0.27 | 103.7 ± 0.73 | 104 ± 1.4 | 105.2 ± 0.21
7.72813 µg/mL | -5.01 ± 2.2 | 11.8 ± 2 | 41.4 ± 3.8 | 89.42 ± 0.47 | 96.2 ± 5.1 | 103.9 ± 0.2 | 103 ± 1.1 | 104.3 ± 0.4 | 104.89 ± 0.083 | 104.9 ± 0.15
15.4563 µg/mL | 73.4 ± 1.3 | 86.39 ± 0.69 | 89.52 ± 0.28 | 88.7 ± 1 | 99.26 ± 0.46 | 104.53 ± 0.064 | 103 ± 1.9 | 104.6 ± 0.29 | 104.93 ± 0.054 | 103 ± 4.2
30.9125 µg/mL | 91.17 ± 0.56 | 91.79 ± 0.25 | 91.84 ± 0.43 | 88.73 ± 0.19 | 100.6 ± 0.24 | 105 ± 0.24 | 104.48 ± 0.025 | 104.8 ± 0.25 | 104.9 ± 0.3 | 105.4 ± 0.62
61.825 µg/mL | 94.06 ± 0.1 | 92.7 ± 0.97 | 93.31 ± 0.38 | 95.37 ± 0.34 | 104.5 ± 0.22 | 105.26 ± 0.056 | 104.54 ± 0.076 | 104.5 ± 0.12 | 104.7 ± 0.12 | 104.7 ± 0.14
123.65 µg/mL | 100.4 ± 0.28 | 100.9 ± 0.27 | 101.5 ± 0.51 | 103.1 ± 0.43 | 104.8 ± 0.51 | 105 ± 0.34 | 104 ± 0.18 | 103.9 ± 0.18 | 104.1 ± 0.32 | 104.3 ± 0.37
